Measurements published in the RNAGym collection of RNA variant scans (doi:10.1101/gad.245936.114).
Variants at the background level are over-represented here.

B1: tRNA (parent)
chain: CUCUCGGUAGCCAAGUUGGUUUAAGGCGCAAGACUUUAAUUUAUCACUACGAAAUCUUGAGAUCGGGCGUUCGACUCGCCCCCGGGAGAUUUUUUCCUCGAGCAA

Variants of: B1
Experiment: nonsense suppression (GFP-seq) (ratio to wild type); higher = more function; SUP4oc tRNA, yeast GFP reporter sort-seq
Method in brief: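 Sorted GFP/RFP bins of yeast were each Illumina-sequenced with a phred ≥30 cutoff; the cells held a genome-integrated ochre-suppressor tRNA variant from a library with ~3% random mutations, a galactose-driven GFP ochre reporter, and RFP. Culture was in raffinose/galactose medium containing 80 mg/L adenine. Nonsense suppression, termed GFPSEQ, is the median GFP/RFP of the bins weighted by each variant's estimated cell share per bin, relative to the unmutated parent tRNA, for variants reaching ≥100 reads and ≥30 cells.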

Variant | nonsense suppression
CUCUCGGUAGCCAAGUUGGUUUAAGGCAUAAGACUUUAAUUUAUCACUACGAAAUCUUGAGAUCGGGCGUUCGACUCGCCCCCGGGAGAUUUUUUCCUCGAGCAA | 1.15
CUCUCGGUAGCCAAGUUGGUUUAAGGCAUAAGACUUUAAUUUAUCACUACGAAAUCUUGCGAUCGGGCGAUCGACUCGCCCCCGGGAGAUUUUUUCCUCGAGCAA | ≤ 0.026
CUCUCGGUAGCCAAGUUGGUUUAAGGCAUAAGACUUUAAUUUAUCACUACGAAAUCUUGAGAUCGGGCAUUCGACUCGCCCCCGGGAGAUUUUUUCCUCGAGCAA | ≤ 0.026
CUCUCGGUAGCCAAGUUGGUUUAAGGCACAAGAGUUUAAUUUAUCACUACGAAAUCUUGAGAUCGGGCGUUCGACUCGCCCCCCGGACAUUUUUUCCUCGAGCAA | ≤ 0.026
CUCUCGGUAGCCAAGUUGGUUUAAGGCACAAGAUUUUAAUUUAUCACUACGAAAUCUUGAGAUCGGGCCUUCGACCCGCCCCCCGGAGAUUUUUUCCUCGAGCAA | ≤ 0.026
CUCUCGGUAGCCAAGUUGGUUUAAGGCACAAGACUUUAAUUUAUCACUACGAAAUAUUGUGAUCGGGCGUUCGAUUCGCCCCCGGGAGAUUUUUUCCUCGAGCAA | ≤ 0.026
CUCUCGGUAGCCAAGUUGGUUUAAGGCACAAGACUUUAAUUUAUCACUACGAAAUUUUCAGAUCGGGCGUUCGACUCCCCCCCGGGAGAUUUUUUCCUCGAGCAA | ≤ 0.026
CUCUCGGUAGCCAAGUUGGUUUAAGGCACAAGACUUUAAUUUAUCACUACGAAAUCUUGAGAUCGGGUGUUCGACUCGCCCCCGGGAGAUUUUUUCCUCGAGCAA | 1.17
CUCUCGGUAGCCAAGUUGGUUUAAGGCACAAGACUUUAAUUUAUCACUACGAAAUCUUGAGAUCGGGCGUUCGACUCGGCCCCGGGAGAUUUUUUCCUCGAGCAA | ≤ 0.026
CUCUCGGUAGCCAAGUUGGUUUAAGGCACAAGACUUUAAUUUAUCACUACGAAAUCUUGAGAUCGGGCGUUCGACUCGCCUCCGGGAGAUUUUUUCCUCGAGCAA | 1.2
CUCUCGGUAGCCAAGUUGGUUUAAGGCACAAGACUUUAAUUUAUCACUACGAAAUCUUGAGAUCGGGCGUUCGACUCGCCCACGGGAGAUUUUUUCCUCGAGCAA | ≤ 0.026
CUCUCGGUAGCCAAGUUGGUUUAAGGCACAAGACUUUAAUUUAUCACUACGAAAUCUUGAGAUCGGGCGUUCGACUCGCCCCGGGGAGCUUUUUUCCUCGAGCAA | ≤ 0.026
CUCUCGGUAGCCAAGUUGGUUUAAGGCACAACACUUUAAUUUAUCACUACGAAAUCUUGAGAUCGGGCGUUCGACUCGCCCCCGGGAGAUUUUUUCCUCGAGCAA | ≤ 0.026
CUCUCGGUAGCCAAGUUGGUUUAAGGCACAAUACUUUAAUUUAUCACUACGAAAUCUUGAAAUCGAGCGUUCGACUCGCCCCCGGGAGAUUUUUUCCUCGAGCAA | ≤ 0.026
CUCUCGGUAGCCAAGUUGGUUUAAGGCACAAGACUUUAAUUUAUCACUACGAAAUCUUGAGAUCGGACGUUAGACUCGCCCCCGGGAGAUUUUUUCCUCGAGCAA | ≤ 0.026
CUCUCGGUAGCCAAGUUGGUUUAAGGCACAAGACUUUAAUUUAUCACUACGAAAUCUUGAGAUCGGCCGUUCGACUCGCCCCCGGGAGAUUUUUUCCUCGAGCAA | ≤ 0.026
CUCUCGGUAGCCAAGUUGGUUUAAGGCACAAGACUUUAAUUUAUCACUACGAAAUCUUGAGAUCGGGCCUUCGACUCGCCCCCGGGGGAUUUUUUCCUCGAGCAA | ≤ 0.026
CUCUCGGUAGCCAAGUUGGUUUAAGGCACAAGACUUUAAUUUAUCACUACGAAAUCUUGAGAUCGGGCCUUCGACUCGCACCCGGGAGAUUUUUUCCUCGAGCAA | ≤ 0.026
CUCUCGGUAGCCAAGUUGGUUUAAGGCACAAGACUUUAAUUUAUCACUACGAAAUCUUGAGAUCGGGCGUUCGACUCGCCCCCAGGAGAUUUUUUCCUCGAGCAA | ≤ 0.026
CUCUCGGUAGCCAAGUUGGUUUAAGGCACAAGACUUUAAUUUAUCACUACGAAAUCUUGAGAUCGGGCGUUCGACUCGCCCCCGGCAGAUUUUUUCCUCGAGCAA | ≤ 0.026
CUCUCGGUAGCCAAGUUGGUUUAAGGCACAAGACGUUAAUUUAUCACUACGAAAUCUUGAGAUCGGACGUUCGACUCGCCCCCCGGAGAUUUUUUCCUCGAGCAA | ≤ 0.026
CUCUCGGUAGCCAAGUUGGUUUAAGGCACAAGACUUUAAUUUAUCACUACGAAAUCCUGAGAUCGGGCGUUCGACUCGCCCCCGGGAGAUUUUUUCCUCGAGCAA | ≤ 0.026
CUCUCGGUAGCCAAGUUGGUUUAAGGCACAAGACUUUAAUUUAUCACUACGAAAUCUUGAGAACGGGGGAUCGACUCGCCCCCGCGAGAUUUUUUCCUCGAGCAA | ≤ 0.026
CUCUCGGUAGCCAAGUUGGUUUAAGGCACAAGACUUUAAUUUAUCACUACGAAAUCUUGAGACUGGGCGUUCGACUCUCCCCCGAGAGAUUUUUUCCUCGAGCAA | ≤ 0.026
CUCUCGGUAGCCAAGUUGGUUUAAGGCACAAGACUUUAAUUUAUCACUACGAAAUCUUGAGAUCGGGCGUACGACUCGCCCCCGGGAGAUUUUUUCCUCGAGCAA | ≤ 0.026
CUCUCGGUAGCCAAGUUGGUUUAAGGCACAAGACUUUAAUUUAUCACUACGAAAUCUUGAGAUCGGGCGUUCGACGCGCCCCCGGGAGAUUUUUUCCUCGAGCAA | ≤ 0.026
CUCUCGGUAGCCAAGUUGGUUUAAGGCCCACGACUUUAAUUUAUCACUACGAAAUCUUGAGAUCAGGCGUUCGACUCGCCCCCGGGAGAUUUUUUCCUCGAGCAA | ≤ 0.026

Variant | nonsense suppression
CUCUCGGUAGCCAAGUUGGUUUAAGGCCCAAGCCUUUAAUUUAUCACUACGAAAUCUUGAGAUCGGGCGUUCGACUCGCCCCCGGGAGAUUUUUUCCUCGAGCAA | ≤ 0.026
CUCUCGGUAGCCAAGUUGGUUUAAGGCCCAAGGCUUUAAUUUAUCACUACGAAAUCUUGAGAUCAGGCGCUCGACUCGCCCCCGGGAGAUUUUUUCCUCGAGCAA | ≤ 0.026
CUCUCGGUAGCCAAGUUGGUUUAAGGCCCAAGUCUUUAAUUUAUCACUACGAAAUCUUGAGAUCGGGCGUUCGACUCGUCCCCGGGAGAUUUUUUCCUCGAGCAA | ≤ 0.026
CUCUCGGUAGCCAAGUUGGUUUAAGGCCCAAGACUUUAAUUUAUCACUACGAAUUCUUGAGAUCGGGCGUUCGACACGCCCCCGGGAGAUUUUUUCCUCGAGCAA | ≤ 0.026
CUCUCGGUAGCCAAGUUGGUUUAAGGCCCAAGACUUUAAUUUAUCACUACGAAAUCUUGAGAUCGGGCGUUCGACUCGCCCCCGGGAGGUUUUUUCCUCGAGCAA | 0.0403
CUCUCGGUAGCCAAGUUGGUUUAAGGCCAAAGACUUUAAUUUAUCACUACGAAAUCUUGAGAUCGGGCGUUCGACUCGCCCACGGGAGAUUUUUUCCUCGAGCAA | ≤ 0.026
CUCUCGGUAGCCAAGUUGGUUUAAGGCCCAAGAUUUUAAUUUAUCACUACGAAAUCUUGAGAUCGGGCGUUCGACUCCCCCCCGGGAGAUUUUUUCCUCGAGCAA | ≤ 0.026
CUCUCGGUAGCCAAGUUGGUUUAAGGCCCAAGACUUUAAUUUAUCACUACGAAAUCUUGAGAUUGGGCGUUCGACUCGCCCCCGGGAGAUUUUUUCCUCGAGCAA | 0.0765
CUCUCGGUAGCCAAGUUGGUUUAAGGCCCAAGACUUUAAUUUAUCACUACGAAAUCUUGAGAUCGGGCGUUCGACUGGCCCCCGAGAGAUUUUUUCCUCGAGCAA | ≤ 0.026
CUCUCGGUAGCCAAGUUGGUUUAAGGCCCAAGACUUUAAUUUAUCACUACGAAAUCUUGAGAUCGGGCGUUCGACUCGGCCCCAGGAGGUUUUUUCCUCGAGCAA | ≤ 0.026
CUCUCGGUAGCCAAGUUGGUUUAAGGCCCAAGACUUUAAUUUAUCACUACGAAAUCUUGAGAUCGGGCGUUCGACUCGCCCGCGGGAGAUUUUUUCCUCGAGCAA | ≤ 0.026
CUCUCGGUAGCCAAGUUGGUUUAAGGCCCAAAACUUUAAUUUAUCACUACGAAAUCUUGAAAUCCGGCGUUCGACUCGCCCCCGGGAGAUUUUUUCCUCGAGCAA | ≤ 0.026
CUCUCGGUAGCCAAGUUGGUUUAAGGCCCAAGACUUUAAUUUAUCACUACGAAAUCUUUAGAUCGGGCGUUCGACUCGACCCGGGGAGAUUUUUUCCUCGAGCAA | ≤ 0.026
CUCUCGGUAGCCAAGUUGGUUUAAGGCCCAAGACUUUAAUUUAUCACUACGAAAUCUUGAAAUCGGGCGUUCGACUCGCCCCCGGAAGAUUUUUUCCUCGAGCAA | ≤ 0.026
CUCUCGGUAGCCAAGUUGGUUUAAGGCCCAAGACUUUAAUUUAUCACUACGAAAUCUUGAGAUCGGACGUUCGACUCGCCCCCGGGAGAUUUUUUCCUCGAGCAA | 0.0635
CUCUCGGUAGCCAAGUUGGUUUAAGGCCCAAGACUUUAAUUUAUCACUACGAAAUCUUGAGAUCGGCCGUUCGACUCGUCCCCGGGAGAUUUUUUCCUCGAGCAA | ≤ 0.026
CUCUCGGUAGCCAAGUUGGUUUAAGGCCCAAGACUUUAAUUUAUCACUACGAAAUCUUGAGAUCGGGCGUUCUACUCGCCCCCGGGAGAUUUUUUCCUCGAGCAA | 0.0322
CUCUCGGUAGCCAAGUUGGUUUAAGGCCCAAGACUUUAAUUUAUCACUACGAAAUCUUGAGAUCGGGCGUUCUACACGCCCCCGGGAGAUUUUUUCCUCGAGCAA | ≤ 0.026
CUCUCGGUAGCCAAGUUGGUUUAAGGCCCAAGACUUUAAUUUAUCACUACGAAAUCUUGAGAUCGGGCGUUCGACUCACCCCCGGGAGAUUUUUUCCUCGAGCAA | 0.0288
CUCUCGGUAGCCAAGUUGGUUUAAGGCCCAAGACUUUAAUUUAUCACUACGAAAUCUUGAGAUCGGGCGUUCGACUCCCCCCCGGGAGAUUUUUUCCUCGAGCAA | ≤ 0.026
CUCUCGGUAGCCAAGUUGGUUUAAGGCCCAAGACUUUAAUUUAUCACUACGAAAUCUUGAGAUCGGGCGUUCGACUCGCCCCCGGGAAAUUUUUUCCUCGAGCAA | ≤ 0.026
CUCUCGGUAGCCAAGUUGGUUUAAGGCCCAAGACAUUAAUUUAUCACUACGAAAUCGUGAGAUCGGGCGUUCGACUCGCCCCCGGGAGAUUUUUUCCUCGAGCAA | ≤ 0.026
CUCUCGGUAGCCAAGUUGGUUUAAGGCCCAAGACCUUAAUUUAUCACUACGAAAUCUAGAGAUCGGGCGUUCGACUCGCCCCCGGGAGAUUUUUUCCUCGAGCAA | ≤ 0.026
CUCUCGGUAGCCAAGUUGGUUUAAGGCCCAAGACUUUAAUUUAUCACUACGAAAUCCUGAGAUCGGGCGUUCGACUCGCCCCCGGGAGAUUUUUUCCUCGAGCAA | 0.0349
CUCUCGGUAGCCAAGUUGGUUUAAGGCCCAAGACUUUAAUUUAUCACUACGAAAUCCUGAGAUCGGGCGUUCGAGUCGCCCCCGGGAGAUUUUUUCCUCGAGCAA | ≤ 0.026
CUCUCGGUAGCCAAGUUGGUUUAAGGCCCAAGACUUUAAUUUAUCACUACGAAAUCCUGAGAUCGGGCGUUCGACUCGCCACCGGUAGAUUUUUUCCUCGAGCAA | ≤ 0.026
CUCUCGGUAGCCAAGUUGGUUUAAGGCCCAAGACUUUAAUUUAUCACUACGAAAUCUUGAGACCGGGCGUUCGACUCGCCCCCGGGAGAUUUUUUCCUCGAGCAA | 0.114
